{"source": "PubChem BioAssay AID1346428", "about": "(National Center for Advancing Translational Sciences (NCATS), 2018)", "note": "Values joined by “and” are separate entries in the source; they are usually repeats but may differ in a detail not shown here. Equal values may be shown once. The campaign covered roughly 48,000 compounds. About 1,200 (2.5%) were called active. Another 2% or so got no clear call; they are omitted.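 Rule for the calls: active = activation of at least 60% and not above a set upper limit (about 1 call in 100 departs from these limits); inconclusive = activation of 40% to 60%, or above that upper limit; inactive = activation under 40%.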 The list shows a part of the results."}
{"target": "Probable G-protein coupled receptor 32 (Homo sapiens) (UniProt O75388)", "sequence (O75388 whole entry, looked up)": "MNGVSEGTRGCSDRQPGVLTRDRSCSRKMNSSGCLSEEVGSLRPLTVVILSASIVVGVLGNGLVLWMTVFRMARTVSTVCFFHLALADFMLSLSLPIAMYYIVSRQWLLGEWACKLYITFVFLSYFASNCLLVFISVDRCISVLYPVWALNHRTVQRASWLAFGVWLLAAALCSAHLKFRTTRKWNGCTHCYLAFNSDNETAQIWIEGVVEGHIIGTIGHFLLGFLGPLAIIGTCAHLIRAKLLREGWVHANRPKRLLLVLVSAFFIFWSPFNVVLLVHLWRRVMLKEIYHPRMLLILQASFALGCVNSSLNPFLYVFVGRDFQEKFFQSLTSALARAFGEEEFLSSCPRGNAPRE", "assay": "qHTS for Agonists of Human Resolvin D1 Receptor DRV1; note: 0% is about no effect", "conditions": "CHO-K1 GPR32 beta-arrestin PathHunter luminescence, 90 min; at 76.9 µM; stronger effect = higher value; zero percent set by DMSO-only wells", "how_it_was_run": "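Readings come from a cell-based beta-arrestin complementation format: CHO-K1 GPR32 stable cells (2,500/well) treated 90 min with compounds, then beta-Gal substrate added for 1 h before chemiluminescence imaging.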"}
{"smiles": "CC1CCCN(Cc2nc3c(c(=O)n(C)c(=O)n3C)n2Cc2ccc(Cl)cc2Cl)C1", "note": "(stereo not drawn)", "activation": "inactive: 11.7%"}
{"smiles": "NS(=O)(=O)c1ccc(CCNC(=O)c2ccc3nc(Cc4ccccc4)oc3c2)cc1", "activation": "inactive: 37.8%"}
{"smiles": "CC(C)(C)C1CCc2c(sc(NC(=O)CCC(=O)O)c2C(=O)Nc2ccccc2C(F)(F)F)C1", "note": "(stereo not drawn)", "activation": "inactive: 43.5%"}
{"smiles": "CCCc1cc(=O)oc2cc(C)c3c(-c4cccc(OC)c4)coc3c12", "activation": "inactive: -5.32%"}
{"smiles": "COC(=O)c1ccc2c(=O)n(CCCCCC(=O)N3CCN(c4cc(Cl)ccc4C)CC3)c(=O)[nH]c2c1", "activation": "inactive: 6.05%"}
{"smiles": "CCc1ccc(NC(=O)Cn2ncc3c(C)n(Cc4cccc(Cl)c4)c(C)c3c2=O)cc1", "activation": "inactive: -0.0564%"}
{"smiles": "CN(C)CCNC(=O)CN1C(=O)CCn2nc(-c3cn(C)c4ccccc34)cc21", "activation": "inactive: -18%"}
{"smiles": "O=C(Nc1ccc(C(F)(F)F)cc1)C1CCCN(S(=O)(=O)c2cccc3cccnc23)C1", "note": "(stereo not drawn)", "activation": "inactive: 1.52%"}
{"smiles": "CC(=O)Nc1ccc(S(=O)(=O)NCc2ccc(C(=O)NCc3ccc(Cl)cc3)cc2)cc1", "activation": "inactive: 16.6%"}
{"smiles": "COc1ccc(CCNC(=O)c2cnc3sc(N4CCC(C)CC4)nn3c2=O)cc1OC", "activation": "inactive: -0.0536%"}
{"smiles": "O=C(Nc1cccc(C(=O)N2CCN(c3ccccc3F)CC2)c1)c1nsc2ccccc12", "activation": "inactive: -17.3%"}
{"smiles": "COc1ccccc1Nc1c2c(nc3ccc(NC(=O)c4cccc(OC)c4OC)cc13)CCCC2", "activation": "inactive: -7.21%"}
{"smiles": "COC(=O)c1cc2sccc2n1Cc1nc(-c2cccc(Br)c2)oc1C", "activation": "inactive: -7.91%"}
{"smiles": "CCN(c1ccc(OC)cc1)S(=O)(=O)c1nnc(NC(=O)c2ccccc2C)s1", "activation": "inactive: -1.64%"}
{"smiles": "CCC1CCCCN1C(=O)CSc1n[nH]c(-c2ccccc2Cl)n1", "note": "(stereo not drawn)", "activation": "inactive: -82.3%"}
{"smiles": "CCn1ccc2cc(S(=O)(=O)N3CCCN(C(=O)Nc4ccc(C)c(F)c4)CC3)ccc21", "activation": "inactive: 12.2%"}
{"smiles": "COc1ccc(CNC(=O)C(C)N2Cc3ccccc3C2=O)cc1", "note": "(stereo not drawn)", "activation": "inactive: 4.65%"}
{"smiles": "CC(C)CC(=O)NCC1(N(C)C)CCCCC1", "activation": "inactive: -2.97%"}
{"smiles": "CCCc1ccc(OCC(=O)Nc2sc3c(c2C(=O)OC)CCCCC3)cc1", "activation": "inactive: -15%"}
{"smiles": "CCCCOc1ccccc1C(=O)Nc1nonc1-c1ccccc1", "activation": "inactive: 6.07%"}
{"smiles": "Cc1cccc(N(C)c2nc3ccc(C)cc3n3cnnc23)c1", "activation": "active: 66.1%"}
{"smiles": "Cc1ccc(CNC(=O)CCCN2C(=O)c3cccnc3Oc3ccc(Cl)cc32)cc1", "activation": "inactive: -12.6%"}
{"smiles": "Cc1nc(-c2ccccc2)sc1CCNC(=O)C(=O)Nc1ccc2c(c1)OCCO2", "activation": "inactive: 7.93%"}
{"smiles": "Cc1cccc(NC(=O)C(Cc2ccccc2)n2cccc2)c1C", "note": "(stereo not drawn)", "activation": "inactive: -14.7%"}
{"smiles": "CCOc1ccc(NC(=O)c2cc3c(s2)-c2ccccc2OC3)cc1", "activation": "inactive: 4.29%"}
{"smiles": "O=C(Nc1nnc(S(=O)(=O)N2CCCCCC2)s1)c1ccccc1Cl", "activation": "inactive: 23.2%"}
{"smiles": "COc1cc(OC)c(NC(=O)N2CCc3c(sc4c3CCCC4)C2c2ccccc2)cc1Cl", "note": "(stereo not drawn)", "activation": "inactive: 28.2%"}
{"smiles": "COc1cc(N)c(Cl)cc1C(=O)NC1CCN(Cc2ccccc2)CC1", "activation": "inactive: -13.5%"}
{"smiles": "COc1ccccc1N1CCN(c2ccc(-c3nc(-c4ccccc4C)no3)cc2[N+](=O)[O-])CC1", "activation": "inactive: 0.577%"}
{"smiles": "COc1ccccc1Cc1nc2ccccc2nc1SCC(=O)N1CCc2ccccc21", "activation": "inactive: -6.54%"}
{"smiles": "Cc1cccc(-c2nc(CSCC(=O)N3CCN(c4ccccc4)CC3)c(C)o2)c1", "activation": "inactive: -1.42%"}
{"smiles": "CCC(C)NC(=O)C1CCN(C(=O)c2ccc(-n3ccc4ccccc43)s2)CC1", "note": "(stereo not drawn)", "activation": "inactive: 10.9%"}
{"smiles": "COc1ccccc1CCNC(=O)Cc1c(C)c2c(cc(C)c3c(C)c(C)oc32)oc1=O", "activation": "inactive: -7.99%"}
{"smiles": "FC(F)(F)c1cccc(-c2nnn3c2nc(NC2CCCCC2)c2ccccc23)c1", "activation": "inactive: 23.8%"}
{"smiles": "Cc1cccc(N2CCN(C(=O)Cn3cnc4sc(C)c(S(=O)(=O)N5CCN(c6ncccn6)CC5)c4c3=O)CC2C)c1", "note": "(stereo not drawn)", "activation": "inactive: -6.44%"}
{"smiles": "CCOC(=O)c1ccc(NC(=O)CSc2nccn2-c2ccc(OCC)cc2)cc1", "activation": "inactive: 8.32%"}
{"smiles": "COc1ccc(NC(=O)C(C)n2nnc3sc(-c4ccccc4)cc3c2=O)cc1Cl", "note": "(stereo not drawn)", "activation": "inactive: 16.8%"}
{"smiles": "COc1cc([N+](=O)[O-])ccc1NC(=O)N1CCN(c2cc(-c3noc(C)n3)ccc2C)CC1", "activation": "inactive: -6.34%"}
{"smiles": "CCOc1ccccc1CNC(=O)C1CCN(S(=O)(=O)c2c(C)noc2/C=C/c2ccc(C)cc2)CC1", "activation": "inactive: -21.3%"}
{"smiles": "COc1cccc(NC(=O)C(=O)NCCc2csc(-c3ccc(C(F)(F)F)cc3)n2)c1", "activation": "inactive: -19%"}
{"smiles": "CCOc1ccc(CCNC(=O)c2cc(=O)[nH]c3ccc(S(=O)(=O)N4CCCCC4)cc23)cc1OCC", "activation": "inactive: -10.9%"}
{"smiles": "CCSc1nc(-c2ccc(Cl)cc2)nc2c1Cc1c(CO)cnc(C)c1O2", "activation": "inactive: 33%"}
{"smiles": "COc1ccccc1CNC(=O)CCC1N=C2c3ccccc3N=C(SCc3ccccc3Cl)N2C1=O", "note": "(stereo not drawn)", "activation": "inactive: -23.2%"}
{"smiles": "CCOC(=O)c1sc2ccccc2c1S(=O)(=O)NCc1ccc(F)cc1", "activation": "inactive: -31%"}
{"smiles": "CCOC(=O)c1ccc(NC(=O)CCn2cnnn2)cc1", "activation": "inactive: 18.2%"}
{"smiles": "COC(=O)c1cnc(N2CCN(c3ccccc3OC)CC2)c2ccccc12", "activation": "inactive: 2.72%"}
{"smiles": "COc1ccc(-c2cc(C(F)(F)F)n3nc(C(=O)Nc4cccc(C(F)(F)F)c4)c(Br)c3n2)cc1", "activation": "inactive: -2.28%"}
{"smiles": "CC1=C(c2ccc(Cl)cc2)S(=O)(=O)N=C1N1CCN(c2cccc(C(F)(F)F)c2)CC1", "activation": "inactive: -10.5%"}
{"smiles": "Nc1nc(N)nc(-c2cc(Cl)ccc2Cl)n1", "activation": "inactive: -7.53%"}
{"smiles": "O=C(NCc1ccccc1Cl)c1ccc(CSCc2cccc(F)c2)o1", "activation": "inactive: -21.6%"}
{"smiles": "Cc1ccc(-n2nnnc2CNC(=O)c2ccccc2F)cc1C", "activation": "inactive: -4.71%"}
{"smiles": "CCN1CCCC1CNC(=O)c1cc(S(=O)(=O)CC)c(N)cc1OC", "note": "(stereo not drawn)", "activation": "inactive: 5.37% and inactive: -0.157%"}
{"smiles": "Cc1ccc(NC(c2nnc(-c3ccccc3)o2)c2ccccc2F)c([N+](=O)[O-])c1", "note": "(stereo not drawn)", "activation": "inactive: -17.1%"}
{"smiles": "O=C(Nc1c(C(=O)Nc2cccc(C(F)(F)F)c2)oc2ccccc12)c1cc(=O)c2ccccc2o1", "activation": "inactive: -9.55%"}
{"smiles": "Cc1cccn2c(=O)cc(COc3ccc(NC(=O)c4cccc(F)c4)cc3)nc12", "activation": "inactive: -10.7%"}
{"smiles": "CCC1CCCCN1C(=O)Cn1c(=O)n(CCCCCC(=O)NCc2ccc(F)cc2)c(=O)c2sccc21", "note": "(stereo not drawn)", "activation": "inactive: -9.21%"}
{"smiles": "O=C(O)CCn1cnc2onc(-c3ccccc3Cl)c2c1=O", "activation": "inactive: 0.576%"}
{"smiles": "CCn1c(=O)c2cc(C(=O)NCCCN(C)Cc3ccccc3)sc2c2ccccc21", "activation": "inactive: 38.4%"}
{"smiles": "CCc1cccc(NC(=O)Cn2cc(C(=O)c3ccncc3)c(=O)c3cc(C)c(C)cc32)c1", "activation": "inactive: -17.8%"}
{"smiles": "O=C(NCc1ccc(Cl)cc1)c1ccc2c(c1)NC(=O)C(CS(=O)(=O)Cc1ccccc1Cl)N2", "note": "(stereo not drawn)", "activation": "inactive: -18.9%"}
{"smiles": "CCOc1ccc(NC(=O)Cn2c(=O)n(CC3CCCO3)c(=O)c3ccccc32)cc1", "note": "(stereo not drawn)", "activation": "inactive: -3.31%"}
{"smiles": "CCc1ccc(-n2nc(C)c3c(C)cc(=O)n(CC(=O)NCc4ccc(C)cc4)c32)cc1", "activation": "inactive: 14.7%"}
{"smiles": "CCc1ccc(NC(=O)CSc2nc(C)cc(COC)c2C#N)cc1", "activation": "inactive: 26%"}
{"smiles": "CCCCCCc1cc2cc(-c3nnc(-c4ccc(C)cc4)o3)c(=O)oc2cc1O", "activation": "inactive: 42.7%"}
{"smiles": "CC(C)CCNc1nc2c(S(=O)(=O)c3ccc(Br)cc3)nnn2c2ccsc12", "activation": "inactive: -13.4%"}
{"smiles": "O=C(NCc1cccnc1)C(=O)NCC(c1cccnc1)N1CCN(c2ccccc2)CC1", "note": "(stereo not drawn)", "activation": "inactive: -4.89%"}
{"smiles": "CCc1cc2c(cc3c(=O)n(CC(=O)N4CCN(c5cc(Cl)ccc5C)CC4)nc(CC)n32)s1", "activation": "inactive: -14.3%"}
{"smiles": "O=C(NCc1ccccc1)C1CCN(C(=O)c2cnn(-c3ccccc3)c2-n2cccc2)CC1", "activation": "inactive: -18.2%"}
{"smiles": "C=Cc1ccc(Cn2c(=O)n(-c3ccc(C)cc3)c(=O)c3c2c2cc(OC)ccc2n3C)cc1", "activation": "inactive: -8.48%"}
{"smiles": "CCOc1ccc2nc(N3CCCC(C(=O)NCc4ccccc4Cl)C3)sc2c1", "note": "(stereo not drawn)", "activation": "inactive: -15.8%"}
{"smiles": "COc1ccc2cc(C(=O)NCc3ccc4c(c3)CCN4C(=O)c3ccc(C)cc3)[nH]c2c1", "activation": "inactive: -17.3%"}
{"smiles": "CC1=C(C(=O)Nc2ccc(C)cc2C)C(c2cccn2C)n2ncnc2N1", "note": "(stereo not drawn)", "activation": "inactive: 5.89%"}
{"smiles": "CC(=O)Nc1nnc(SCc2cc(=O)c3cccc(C)c3[nH]2)s1", "activation": "inactive: 5.52%"}
{"smiles": "Cc1ccc(C)c(Cn2c(C)c(CNCc3ccc(F)cc3)c(C(=O)O)c2C)c1", "activation": "inactive: -3.14%"}
{"smiles": "COc1ccc(CCNC(=O)CCCCCn2c(=O)[nH]c3cc(OC)c(OC)cc3c2=O)cc1OC", "activation": "inactive: -0.0616%"}
{"smiles": "CCc1ccc(C2=CC(c3cccc(Br)c3)n3nnnc3N2)cc1", "note": "(stereo not drawn)", "activation": "inactive: -40.5%"}
{"smiles": "Cc1ccc2c(c1)c(=O)c(C(=O)c1ccncc1)cn2CC(=O)Nc1ccccc1Cl", "activation": "inactive: -4.42%"}
{"smiles": "NC(N)=NCCN1CCCCCCC1", "activation": "inactive: -13.5%"}
{"smiles": "Cc1ccc(C)c(N2CCN(c3nc4ccccc4c4nc(-c5cccnc5)nn34)CC2)c1", "activation": "inactive: 29.2%"}
{"smiles": "CCOC(=O)c1cccc(NC(c2nnc(-c3ccccc3)o2)c2ccccc2F)c1", "note": "(stereo not drawn)", "activation": "inactive: -17.3%"}
{"smiles": "CC(C)C(=O)Nc1cccc(NC2=NS(=O)(=O)c3ccccc32)c1", "activation": "inactive: 11%"}
{"smiles": "Cc1ccc(CNC(=O)C2CCCN(c3nnc(-n4c(C)ccc4C)s3)C2)cc1", "note": "(stereo not drawn)", "activation": "inactive: -33.4%"}
{"smiles": "CCc1ccc(NC(=O)Cn2c(=O)oc3cc(S(=O)(=O)NCc4ccccc4)ccc32)cc1", "activation": "active: 73.3%"}
